B1: B781401 (bispecific antibody, human IgG1, kappa)
heavy: SDTGRPFVEMYSEIPEIIHMTEGRELVIPCRVTSPNITVTLKKFPLDTLIPDGKRIIWDSRKGFIISNATYKEIGLLTCEATVNGHLYKTNYLTHRQTNTIIDVVLSPSHGIELSVGEKLVLNCTARTELNVGIDFNWEYPSSKHQHKKLVNRDLKTQSGSEMKKFLSTLTIDGVTRSDQGLYTCAASSGLMTKKNSTFVRVHEKQVQLQESGPGLVRPSQTLSLTCTVSGYSITSDHAWSWVRQPPGRGLEWIGYISYSGITTYNPSLKSRVTMLRDTSKNQFSLRLSSVTAADTAVYYCARSLARTTAMDYWGQGSLVTVSS[letters of human IgG1 constant region not shown]
light: DIQMTQSPSSLSASVGDRVTITCRASQDISSYLNWYQQKPGKAPKLLIYYTSRLHSGVPSRFSGSGSGTDFTFTISSLQPEDIATYYCQQGNTLPYTFGQGTKVEIKRTVAAPSVFIFPPSDEQLKSGTASVVCLLNNFYPREAKVQWKVDNALQSGNSQESVTEQDSKDSTYSLSSTLTLSKADYEKHKVYACEVTHQGLSSPVTKSFNRGEC
notes: VEGFR-1-D2-VEGFR-2-D3 joined directly to the N-terminus of the tocilizumab heavy chain
B2: B781405 (bispecific antibody, human IgG1, kappa)
heavy: QVQLQESGPGLVRPSQTLSLTCTVSGYSITSDHAWSWVRQPPGRGLEWIGYISYSGITTYNPSLKSRVTMLRDTSKNQFSLRLSSVTAADTAVYYCARSLARTTAMDYWGQGSLVTVSS[letters of human IgG1 constant region not shown]
light: SDTGRPFVEMYSEIPEIIHMTEGRELVIPCRVTSPNITVTLKKFPLDTLIPDGKRIIWDSRKGFIISNATYKEIGLLTCEATVNGHLYKTNYLTHRQTNTIIDVVLSPSHGIELSVGEKLVLNCTARTELNVGIDFNWEYPSSKHQHKKLVNRDLKTQSGSEMKKFLSTLTIDGVTRSDQGLYTCAASSGLMTKKNSTFVRVHEKDIQMTQSPSSLSASVGDRVTITCRASQDISSYLNWYQQKPGKAPKLLIYYTSRLHSGVPSRFSGSGSGTDFTFTISSLQPEDIATYYCQQGNTLPYTFGQGTKVEIKRTVAAPSVFIFPPSDEQLKSGTASVVCLLNNFYPREAKVQWKVDNALQSGNSQESVTEQDSKDSTYSLSSTLTLSKADYEKHKVYACEVTHQGLSSPVTKSFNRGEC
notes: VEGFR-1-D2-VEGFR-2-D3 joined directly to the N-terminus of the tocilizumab light chain
B3: B781406 (bispecific antibody, human IgG1, kappa)
heavy: B2 heavy
light: SDTGRPFVEMYSEIPEIIHMTEGRELVIPCRVTSPNITVTLKKFPLDTLIPDGKRIIWDSRKGFIISNATYKEIGLLTCEATVNGHLYKTNYLTHRQTNTIIDVVLSPSHGIELSVGEKLVLNCTARTELNVGIDFNWEYPSSKHQHKKLVNRDLKTQSGSEMKKFLSTLTIDGVTRSDQGLYTCAASSGLMTKKNSTFVRVHEKGGSGGGSGGGGSGGGGGSGGGGDIQMTQSPSSLSASVGDRVTITCRASQDISSYLNWYQQKPGKAPKLLIYYTSRLHSGVPSRFSGSGSGTDFTFTISSLQPEDIATYYCQQGNTLPYTFGQGTKVEIKRTVAAPSVFIFPPSDEQLKSGTASVVCLLNNFYPREAKVQWKVDNALQSGNSQESVTEQDSKDSTYSLSSTLTLSKADYEKHKVYACEVTHQGLSSPVTKSFNRGEC
notes: VEGFR-1-D2-VEGFR-2-D3 joined by a flexible linker to the N-terminus of the tocilizumab light chain

What follows are binders tested against T1, 重组人VEGF-A 165 (human, UniProt P15692-4 27-191) (assay: ELISA, plate coated with recombinant human VEGF-A165, anti-human IgG1-Fc-HRP, OD450).
T1 construct: Coated on ELISA plates; also used in solution in the VEGFR2 reporter assay; also called recombinant human VEGF-A165
T1 sequence (looked up): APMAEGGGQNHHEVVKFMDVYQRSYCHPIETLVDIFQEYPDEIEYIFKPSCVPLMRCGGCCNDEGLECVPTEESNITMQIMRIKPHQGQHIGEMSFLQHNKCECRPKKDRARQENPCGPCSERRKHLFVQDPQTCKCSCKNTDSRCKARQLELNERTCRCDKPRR

Binder | binding result
B1 | binds
B2 | binds
B3 | binds

Source: patent CN116897165A (dated 2023)
